Sequences with one replicate were seen in a single cluster, so their values are uncertain.
What follows are sequences tested on ATP (assay: switch fluorescence ratio, 500 uM ATP over buffer (Cy3 cluster intensity, sum of 5 cycles each) (fold (ratio)); higher = stronger signal-on switching upon ATP binding; sequences stand for … in TCGTCGGCAGCGTCAGATGTGTATAAGAGACAGTTTTTTTTTTTTTTTTTTTTTTTTT…TC). Conditions: aptamer strand: ATP DNA aptamer (quencher-CACCTGGGGGAGTATTGCGGAGGAAGG + anchor), 100 nM annealed; ATP concentration: 500 uM; one replicate.
Procedure, shortened: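 After annealing to 100 nM quencher-labelled ATP aptamer, Cy3-labelled switching-strand clusters on a modified Illumina MiSeq flow-cell were imaged in selection buffer. A second image followed after 15 min with 500 uM ATP at 22 °C, and five such buffer/ATP cycles were done, each separated by NaOH stripping and re-annealing. The fluorescence ratio, averaged per switch-domain sequence, is summed target-cycle over summed buffer-cycle Cy3 intensity per cluster, with clusters outside 100-1000 RFU excluded.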
For TGGAACGGTG, the switch fluorescence ratio was 1.03. In the case of TGGAATATG, the switch fluorescence ratio is reported as 1.16. For TGGAATGTTT, the switch fluorescence ratio was 1. TGGACCTTTC was tested, and the switch fluorescence ratio was 2.68. With TGGACGGAGG the switch fluorescence ratio was 0.981. Sequence TGGACTATGG has a switch fluorescence ratio of 0.994. TGGACTGGTG was tested, and the switch fluorescence ratio was 1.03. TGGAGATATT showed a switch fluorescence ratio of 0.979. TGGAGCACGG gave a switch fluorescence ratio of 1.06. TGGAGCCACG was tested, and the switch fluorescence ratio was 1.04. TGGAGGAGAA was tested, and the switch fluorescence ratio was 1.01. With TGGAGGGTTA the switch fluorescence ratio was 0.99. TGGAGGTAGA showed a switch fluorescence ratio of 1.06. TGGAGTAAGG was tested, and the switch fluorescence ratio was 1.01. TGGAGTAGT showed a switch fluorescence ratio of 1.71. TGGAGTTTCC was tested, and the switch fluorescence ratio was 1.04. Sequence TGGATACTGT has a switch fluorescence ratio of 1.03. In the case of TGGATAGAGA, the switch fluorescence ratio is reported as 0.991. TGGATAGCTT was tested, and the switch fluorescence ratio was 0.961. Work on TGGATCTTGT yielded a switch fluorescence ratio of 0.98. TGGATGCAA was tested, and the switch fluorescence ratio was 2.58. TGGATGGAGG gave a switch fluorescence ratio of 0.984. In the case of TGGATGTGAG, the switch fluorescence ratio is reported as 1.04. TGGATTGTCA was tested, and the switch fluorescence ratio was 0.996. Work on TGGCAAAAGG yielded a switch fluorescence ratio of 1.04. TGGCAATTTT gave a switch fluorescence ratio of 1.19. TGGCACGTGG was tested, and the switch fluorescence ratio was 0.991. TGGCAGGGAG showed a switch fluorescence ratio of 1. TGGCCATCGA gave a switch fluorescence ratio of 0.952. Work on TGGCCCCAAT yielded a switch fluorescence ratio of 1.05. TGGCCCTCCA showed a switch fluorescence ratio of 1.01. TGGCCCTGAT showed a switch fluorescence ratio of 0.966. TGGCCCTTGT was tested, and the switch fluorescence ratio was 1.01. Work on TGGCCGCCGC yielded a switch fluorescence ratio of 1. For TGGCCGCCTT, the switch fluorescence ratio was 1.01. With TGGCCTTTC the switch fluorescence ratio was 1.36. For TGGCGAGGGG, the switch fluorescence ratio was 0.963. TGGCGCGAAC showed a switch fluorescence ratio of 1.65. Work on TGGCGGGGCC yielded a switch fluorescence ratio of 1.02. TGGCGGTTAC gave a switch fluorescence ratio of 1.04. Sequence TGGCGTACTG has a switch fluorescence ratio of 0.99. With TGGCGTTAA the switch fluorescence ratio was 1.08. With TGGCGTTAAT the switch fluorescence ratio was 1.01. TGGCGTTCGT showed a switch fluorescence ratio of 0.972. With TGGCTGAGGG the switch fluorescence ratio was 0.999. With TGGCTTAAAT the switch fluorescence ratio was 1.01. TGGCTTCAGC showed a switch fluorescence ratio of 0.969. In the case of TGGGAGCGTT, the switch fluorescence ratio is reported as 2.41. TGGGATGA was tested, and the switch fluorescence ratio was 0.983. TGGGCATAGC gave a switch fluorescence ratio of 0.964. TGGGCATAGG showed a switch fluorescence ratio of 1.03. For TGGGCATGCA, the switch fluorescence ratio was 0.931. With TGGGCCAGAG the switch fluorescence ratio was 1.05. Sequence TGGGCCATCT has a switch fluorescence ratio of 0.997. TGGGCCCCCC was tested, and the switch fluorescence ratio was 1.06. TGGGCCGTTG showed a switch fluorescence ratio of 1.01. Sequence TGGGCGGCCC has a switch fluorescence ratio of 2.08. TGGGCGGTAA was tested, and the switch fluorescence ratio was 0.976. Work on TGGGGAGTAG yielded a switch fluorescence ratio of 0.962. Work on TGGGGCAGGA yielded a switch fluorescence ratio of 0.977. With TGGGGCCGAA the switch fluorescence ratio was 1. Sequence TGGGGCGAAT has a switch fluorescence ratio of 1.02. Work on TGGGGCTCCC yielded a switch fluorescence ratio of 1.02. In the case of TGGGGGACT, the switch fluorescence ratio is reported as 0.96. TGGGGGTCTC gave a switch fluorescence ratio of 1.02. With TGGGGGTGAT the switch fluorescence ratio was 0.987. In the case of TGGGGTTCCA, the switch fluorescence ratio is reported as 0.983. TGGGTAATGA was tested, and the switch fluorescence ratio was 1.01. Sequence TGGGTATGTC has a switch fluorescence ratio of 1.03. TGGGTCGGAC gave a switch fluorescence ratio of 1.03. TGGGTCTATT was tested, and the switch fluorescence ratio was 1.01. TGGGTCTCGA was tested, and the switch fluorescence ratio was 0.983. TGGGTCTTT was tested, and the switch fluorescence ratio was 1.49. For TGGGTGTACG, the switch fluorescence ratio was 0.967. With TGGGTTATT the switch fluorescence ratio was 0.989. TGGGTTCC gave a switch fluorescence ratio of 1.04. Sequence TGGGTTTCG has a switch fluorescence ratio of 1.04. Sequence TGGTAATCTG has a switch fluorescence ratio of 0.958. With TGGTACGTTA the switch fluorescence ratio was 1.13. With TGGTATACGG the switch fluorescence ratio was 0.993. In the case of TGGTATATGA, the switch fluorescence ratio is reported as 0.969. With TGGTATGGT the switch fluorescence ratio was 0.95. For TGGTCCACTT, the switch fluorescence ratio was 0.981. Work on TGGTCCAGGT yielded a switch fluorescence ratio of 1.26. For TGGTCGGAGC, the switch fluorescence ratio was 1.01. For TGGTCGTATC, the switch fluorescence ratio was 1.05. Work on TGGTCTAGAC yielded a switch fluorescence ratio of 0.991. TGGTCTAGAG gave a switch fluorescence ratio of 1. TGGTCTTGTT was tested, and the switch fluorescence ratio was 0.963. TGGTGACATT was tested, and the switch fluorescence ratio was 1.02. Work on TGGTGAGCTT yielded a switch fluorescence ratio of 0.925. Sequence TGGTGATTAA has a switch fluorescence ratio of 0.99. In the case of TGGTGCGTCC, the switch fluorescence ratio is reported as 1.03. Work on TGGTGGAGCT yielded a switch fluorescence ratio of 0.948. Sequence TGGTGGCGGG has a switch fluorescence ratio of 0.977. For TGGTGGGAAA, the switch fluorescence ratio was 0.96. TGGTGGGCTA showed a switch fluorescence ratio of 0.984. With TGGTGGGTCA the switch fluorescence ratio was 1. In the case of TGGTGGTAAT, the switch fluorescence ratio is reported as 0.933. With TGGTGGTGG the switch fluorescence ratio was 1. Sequence TGGTGTAGA has a switch fluorescence ratio of 1.01. For TGGTGTTCTT, the switch fluorescence ratio was 0.988. TGGTTAGATA gave a switch fluorescence ratio of 1.02. With TGGTTATAGC the switch fluorescence ratio was 0.99. Sequence TGGTTATTGA has a switch fluorescence ratio of 1. With TGGTTCAGCA the switch fluorescence ratio was 1.02. Sequence TGGTTCCACA has a switch fluorescence ratio of 1.04. TGGTTGCGAC gave a switch fluorescence ratio of 0.974. TGGTTGCTCG was tested, and the switch fluorescence ratio was 0.986. With TGGTTTGTGC the switch fluorescence ratio was 0.976. Sequence TGGTTTTAGT has a switch fluorescence ratio of 1. Sequence TGTAAAATCC has a switch fluorescence ratio of 1.01. Sequence TGTAAATAGG has a switch fluorescence ratio of 0.971. Work on TGTAAATAGT yielded a switch fluorescence ratio of 1.06. TGTAAATTGC showed a switch fluorescence ratio of 1.13. TGTAAATTGG showed a switch fluorescence ratio of 1.05. With TGTAACCGTT the switch fluorescence ratio was 0.97. Work on TGTAAGGAGA yielded a switch fluorescence ratio of 1.03. In the case of TGTAAGGCT, the switch fluorescence ratio is reported as 1.07. In the case of TGTAATCCG, the switch fluorescence ratio is reported as 1. With TGTAATGCTC the switch fluorescence ratio was 1.68. TGTACCATGT gave a switch fluorescence ratio of 1.02. Sequence TGTACCTAAT has a switch fluorescence ratio of 1.05. Work on TGTACCTGGT yielded a switch fluorescence ratio of 1.01. In the case of TGTACCTTAT, the switch fluorescence ratio is reported as 1.03. With TGTACGAACA the switch fluorescence ratio was 1.29. TGTACTCAGC gave a switch fluorescence ratio of 1.11. For TGTACTCGAA, the switch fluorescence ratio was 1.29. In the case of TGTACTTGCA, the switch fluorescence ratio is reported as 1.02. TGTAGATGAC showed a switch fluorescence ratio of 1.12. TGTAGATGG gave a switch fluorescence ratio of 0.979. Sequence TGTAGCTTCA has a switch fluorescence ratio of 1.3. Work on TGTAGGGTCT yielded a switch fluorescence ratio of 0.97. TGTAGGTGTA showed a switch fluorescence ratio of 1.01. In the case of TGTAGTCGG, the switch fluorescence ratio is reported as 0.955. With TGTATACGTG the switch fluorescence ratio was 1.01. Work on TGTATATGGC yielded a switch fluorescence ratio of 1.02. TGTATCCCCT showed a switch fluorescence ratio of 1.04. TGTATGCCCC gave a switch fluorescence ratio of 1.04. TGTATGTATA was tested, and the switch fluorescence ratio was 1.06. Work on TGTATTAACT yielded a switch fluorescence ratio of 1.02. Sequence TGTATTGGGG has a switch fluorescence ratio of 1.04. For TGTATTTGGA, the switch fluorescence ratio was 1.02. In the case of TGTCAAAATT, the switch fluorescence ratio is reported as 0.996. In the case of TGTCACACGT, the switch fluorescence ratio is reported as 1. TGTCACAGAC was tested, and the switch fluorescence ratio was 1.03. Work on TGTCACCCCC yielded a switch fluorescence ratio of 1.79. TGTCACTCT was tested, and the switch fluorescence ratio was 0.97. In the case of TGTCCCTGTA, the switch fluorescence ratio is reported as 0.955. TGTCCTCCGA showed a switch fluorescence ratio of 1.58. TGTCGAATCG was tested, and the switch fluorescence ratio was 1.06. Sequence TGTCGGATAC has a switch fluorescence ratio of 1.15. Work on TGTCGGGAAT yielded a switch fluorescence ratio of 1.05. For TGTCGGTACC, the switch fluorescence ratio was 0.984. With TGTCGGTCGC the switch fluorescence ratio was 0.926. Sequence TGTCGTGTGG has a switch fluorescence ratio of 0.995. Work on TGTCGTTCTG yielded a switch fluorescence ratio of 1.01. In the case of TGTCGTTGT, the switch fluorescence ratio is reported as 0.978. With TGTCTAAGA the switch fluorescence ratio was 1.06. TGTCTAAGTA gave a switch fluorescence ratio of 0.966. Sequence TGTCTACTAG has a switch fluorescence ratio of 1.04. TGTCTGAGAT showed a switch fluorescence ratio of 1.07. TGTCTGGCCT gave a switch fluorescence ratio of 0.97. TGTCTTAAAT was tested, and the switch fluorescence ratio was 1.01. Sequence TGTCTTTTCG has a switch fluorescence ratio of 0.995. For TGTGAAGGGT, the switch fluorescence ratio was 1.02. Work on TGTGAATCGG yielded a switch fluorescence ratio of 0.993. TGTGAGAGGA was tested, and the switch fluorescence ratio was 0.962. TGTGAGCTAA gave a switch fluorescence ratio of 1.01. In the case of TGTGAGGATT, the switch fluorescence ratio is reported as 1.41. With TGTGAGTGGA the switch fluorescence ratio was 1.03. Work on TGTGATCCGG yielded a switch fluorescence ratio of 1.04. In the case of TGTGATGGCC, the switch fluorescence ratio is reported as 1.03. Sequence TGTGCATGGT has a switch fluorescence ratio of 0.984. Work on TGTGCTACCT yielded a switch fluorescence ratio of 1.1. With TGTGGAGGTA the switch fluorescence ratio was 0.971. For TGTGGCATG, the switch fluorescence ratio was 1.02. Work on TGTGGGTATG yielded a switch fluorescence ratio of 0.973. TGTGGTTGAT was tested, and the switch fluorescence ratio was 1.01. Sequence TGTGTAAAGC has a switch fluorescence ratio of 1.06. For TGTGTGCAGT, the switch fluorescence ratio was 0.976. TGTGTGGAAA showed a switch fluorescence ratio of 1.06. TGTGTGGC was tested, and the switch fluorescence ratio was 1.03. TGTTAAGCTA showed a switch fluorescence ratio of 0.993. TGTTAATCAT showed a switch fluorescence ratio of 1.01. For TGTTACTGTT, the switch fluorescence ratio was 0.983. With TGTTAGTATA the switch fluorescence ratio was 1.02. Work on TGTTCAAGTA yielded a switch fluorescence ratio of 0.983. TGTTCCGGTA showed a switch fluorescence ratio of 1.08. In the case of TGTTCGATCG, the switch fluorescence ratio is reported as 0.998. TGTTCGGGCC was tested, and the switch fluorescence ratio was 1.01. Work on TGTTCGTTTG yielded a switch fluorescence ratio of 0.965. For TGTTGAGAGG, the switch fluorescence ratio was 1.03. TGTTGAGCTG gave a switch fluorescence ratio of 1. Sequence TGTTGAGGTG has a switch fluorescence ratio of 1.04. Work on TGTTGCTATA yielded a switch fluorescence ratio of 1. Sequence TGTTGGACTT has a switch fluorescence ratio of 1.08. With TGTTGGATAT the switch fluorescence ratio was 1.01. Work on TGTTGGGATA yielded a switch fluorescence ratio of 0.989. For TGTTGGGTCC, the switch fluorescence ratio was 1.02. Sequence TGTTGTTAAC has a switch fluorescence ratio of 0.993.

— the supplement of paper PMC10126150
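Further: ATP exposure 15 min at 22 °C before imaging.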
